# Measurements taken from the supplement of paper PMC12217912.
# The other results are listed elsewhere or left out. Sequences were assembled here from the parent chain. Values near 0.05 are background.
# B1: TEV protease; numbered along this chain (parent)
# chain: MGESLFKGPRDYNPISSSICHLTNESDGHTTSLYGIGFGPFIITNKHLFRRNNGTLVVQSLHGVFKVKDTTTLQQHLVDGRDMIIIRMPKDFPPFPQKLKFREPQREERICLVTTNFQTKSMSSMVSDTSCTFPSGDGIFWKHWIQTKDGQCGSPLVSTRDGFIVGIHSASNFTNTNNYFTSVPKNFMELLTNQEAQQWVSGWRLNADSVLWGGHKVFMVKPEEPFQPVKEATQL
# Variants of: B1
# Assay: raw area under fraction-flipped curve 0-4 h after induction (AUC4h, not background-subtracted), DNA-recorder readout of cleavage of the substrate (dimensionless); higher = more cleavage of the substrate by the protease variant
# Details: temperature: 34 °C; time window: 0-4 h after rhamnose induction
# Experimental: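 In vivo DNA recorder in E. coli TOP10(DE3) ΔrhaA at 34 °C. Each TEVp single-site mutant (parent TEVp 0) is paired with a single-site variant of the 7-mer TEVs (canonical ENLYFQ|S). The substrate sits between flexible linkers in a Bxb1-sfGFP-TEVs-SsrA fusion, so cleavage stabilises Bxb1 and speeds flipping of a recombination array, read by NGS. The value is the raw area under the fraction-flipped curve over 0-4 h after rhamnose induction (AUC4h), with ≥20 reads per time point. It is not background-subtracted; inactive controls average about 0.047.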
# 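Note: Bxb1 expression induced with 0.2% (w/v) L-rhamnose at OD600 near 0.5, cultures sampled hourly, flipped fraction per protease–substrate barcode pair counted by paired-end Illumina sequencing.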
Variant,area with substrate ENLDFQS,area with substrate ENLFFQS,area with substrate ENLGFQS,area with substrate ENLHFQS,area with substrate ENLNFQS,area with substrate ENLWFQS,area with substrate ENLEFQS,area with substrate ENLKFQS,area with substrate ENLRFQS,area with substrate ENLIFQS
D79C,0.0651,0.0684,0.058,0.0752,0.0757,0.0645,–,–,–,–
D79Y,0.0481,0.0666,–,0.064,0.0681,–,0.061,0.0616,0.0745,–
P93G,0.0675,0.0805,–,0.0719,–,–,0.0584,0.0743,0.0836,0.0906
D91Y,0.0581,0.0719,0.0551,0.0543,–,–,–,0.0634,–,–
G150S,0.0592,0.0597,0.0647,0.0518,0.0625,0.05,0.0568,0.069,0.0668,0.0662
V67E,0.0477,0.0745,–,0.0535,–,–,–,–,0.0804,–
N116I,0.0666,–,–,0.0644,–,–,–,0.0737,0.0742,–
A170D,0.0662,–,–,–,0.0593,–,–,0.0569,–,–
A170L,0.0332,–,–,–,–,–,–,0.0789,–,–
P89D,0.0345,–,–,–,0.0629,0.0395,–,–,0.0747,0.0756
P89T,0.0706,0.0682,0.0605,0.0611,0.06,–,–,–,0.0731,0.0909
H62E,0.0613,0.115,0.0544,0.0669,0.0737,–,0.0544,0.0908,–,0.0775
H62T,0.0616,0.0803,–,0.0455,0.0628,0.0637,0.0554,0.0733,–,0.0688
V58Y,0.0482,0.0682,–,–,0.0535,0.0465,0.0493,0.0576,–,0.0622
V58I,0.0507,0.089,–,0.0785,–,–,0.0417,0.085,0.0996,–
V58W,0.0481,–,–,0.051,–,–,–,–,–,–
C111E,0.0495,–,–,–,0.0673,–,0.0696,–,–,0.0885
K221P,0.0548,0.0732,0.0486,0.0597,0.0652,–,0.063,0.112,0.0845,0.0776
H143Y,0.0649,0.117,–,–,0.0516,0.065,0.0777,0.0983,0.0856,0.096
H143S,0.0537,0.085,0.0517,–,0.0615,0.0625,–,0.0609,0.0705,0.0728
P94L,0.0685,0.138,–,0.0787,–,–,–,–,–,–

# Same assay, conditions: temperature: 34 °C; time window: 0-4 h after rhamnose induction
Variant,area with substrate ENLSFQS,area with substrate ENLMFQS,area with substrate ENLQFQS,area with substrate ENLLFQS,area with substrate ENLPFQS,area with substrate ENLVFQS,area with substrate ENLCFQS,area with substrate ENLTFQS
P93G,0.053,–,–,–,–,–,–,–
D91Y,0.0596,0.0745,0.0684,–,–,–,–,–
G150S,0.0573,–,0.0508,0.0432,0.054,0.0489,–,–
V67E,0.0739,–,–,–,–,–,–,–
N116I,–,0.0991,–,0.0836,–,–,–,–
A170L,–,–,–,0.107,–,–,–,–
P89T,0.0526,–,–,–,–,–,–,–
H62E,0.0553,–,–,–,–,–,–,–
H62T,0.0595,0.0763,0.0668,0.0763,0.0653,–,–,–
V58Y,–,–,0.0502,–,0.0803,–,–,–
V58I,0.0713,–,0.0592,–,–,–,–,–
V58W,–,–,–,0.0396,–,–,–,–
C111E,–,–,–,–,0.0657,–,–,–
K221P,0.0573,–,0.0692,0.0814,–,0.065,0.0746,–
H143Y,0.0613,–,–,–,0.0533,0.105,–,–
H143S,–,0.0706,–,–,0.0535,–,–,0.0631
P94L,0.0833,–,–,0.0611,0.0628,–,–,–
